The text below walks through data of ChEMBL document CHEMBL1156829.

Molecules are shown by their SMILES. The full ranking holds about 5,400 compounds; the median of “IFI” is about 2, and the highest 2% start at about 22. This is one part of the list.

The nature of the assay: NOVARTIS: Inhibition Frequency Index (IFI) - the number of HTS assays where a compound showed > 50% inhibition/induction, expressed as a percentage of the number of assays in which the compound was tested. The class given is functional.
Molecule `O=C1C(NC2CCCCC2)=C(N2CCOCC2)C(=O)c2ccccc21` returned an IFI of 3.76%. As for `COc1ccc(CC(=O)Nc2ccc(S(=O)(=O)N3CCCCCC3)cc2)cc1`, the IFI turned out to be 0%. As for `CCOCCCNc1nc2cc(OC)c(OC)cc2c2nc(-c3ccccc3)nn12`, the IFI came to 0%. Consider `CC(NCCN1CCNCC1)c1cc(C(C)(C)C)cc2c1CCC2(C)C` (stereo unspecified), for which the IFI came to 6.67%. For `O=c1[nH]c(N2CCCC2)nc2c1CCN(Cc1coc3ccccc3c1=O)C2`, the IFI is 0%. In the case of `O=C(NC1CC1)C1CCN(c2cccc3c2C(=O)N(Cc2cccc(C(F)(F)F)c2)C3=O)CC1` it was 4.24%. As for `C=CC[n+]1c(C=C2C=CC=CN2C)sc2ccccc21`, the IFI was determined as 7.14%. `CCc1c(C)c(C#N)c2nc3ccccc3n2c1NCc1ccco1` displayed an IFI of 3.65%.

Molecule `CCOc1ccc(-c2c[n+](-c3ccccc3)c3n2CCS3)cc1` returned an IFI of 7.69%. Molecule `COc1ccc(C2c3[nH]c4ccccc4c3C[C@@H]3C(=O)N(CCC(C)C)CC(=O)N23)cc1` (stereo partly specified) displayed an IFI of 0%. For `CCOC(=O)c1ccc(-c2c(-c3cc(CC)c(OC)cc3O)noc2C)o1`, the IFI worked out at 2.44%. Consider `COc1cccc(CNc2ncnc3sc(C(=O)NCC4COCCO4)c(C)c23)c1OC` (stereo unspecified), for which the IFI turned out to be 1%. Regarding `CSc1c(C(=O)Nc2ccc(Br)cc2)ccc2c1C(=O)c1ccccc1C2=O`, the IFI was found to be 1.35%.

Molecule `COc1ccc(NC(=O)C2=C(C)Nc3c(C(=O)Nc4ccc(C)cc4)cnn3C2c2cccc(Cl)c2)cc1` (stereo unspecified) registered an IFI of 0%. In the case of `COc1ccc(C2C(C(=O)Nc3cnc4ccccc4c3)c3ccccc3C(=O)N2Cc2ccc(F)cc2)cc1` (stereo unspecified) it was 1.18%; in that of `CSc1nc2sc3c(c2c(=O)n1-c1ccccc1)CCN(CCc1ccccc1)C3`, 9.8%.

Molecule `Cc1cc(Nc2ccc(C)c(C)c2)n2nc(C)nc2n1` showed an IFI of 0%. In turn, `O=C(C1CCN(C(c2ccc(F)cc2)c2ccc(F)cc2)CC1)N1CCCC1` gave an IFI of 1.96%. Regarding `CC(C)(C)CC(C)(C)Nc1c(-c2ccccc2OC(=O)c2ccc(Cl)c(Cl)c2)nc2ccccn12`, the IFI came to 4.72%.

With `Cc1ccc(-n2nnnc2SCc2nc(-c3cccc([N+](=O)[O-])c3)no2)c(C)c1`, the IFI worked out at 1.5%. For the molecule `CC1(C)O[C@@H]2OC([C@@H](O)CNc3ccc([N+](=O)[O-])cc3[N+](=O)[O-])C(O)[C@@H]2O1` (stereo partly specified), the IFI was 0.746%.

`O=C(NCCc1ccccc1)c1cnc(NCCCn2ccnc2)nc1NCC1CCCCC1` had an IFI of 1.91%. Turning to `O=C(COc1ccccc1)NC(c1ccc([N+](=O)[O-])cc1)c1cc(Cl)c2cccnc2c1O` (stereo unspecified), the IFI is 0%. `COc1ccc(-c2cn(-c3ccc(OC)cc3)c(SCC(=O)Nc3ccccc3)n2)cc1` registered an IFI of 0%.

The molecule `CC(=NNC(=O)/C(=C/c1ccc([N+](=O)[O-])cc1)NC(=O)c1ccccc1)c1ccccn1` displayed an IFI of 10.4%. Consider `COc1ccc(CCNC(=O)c2cc(S(=O)(=O)N3CC(C)CC(C)C3)ccc2Sc2ccc(F)cc2)cc1OC` (stereo unspecified), for which the IFI stood at 0%.

In turn, `CC(C)c1ccc(NC(=O)c2ccc(NCCCN(C)Cc3ccccc3)c([N+](=O)[O-])c2)cc1` yielded an IFI of 0%. In the case of `Cc1ccn2c(NC(C)(C)CC(C)(C)C)c(-c3ccccc3OC(=O)c3ccc4ccccc4c3)nc2c1` it was 5.26%. On to `COc1ccc(-c2c[n+](CC(=O)c3ccc(Cl)cc3)c3n2CCC3)cc1`, for which the IFI was 5%.

`CN(C)CCNc1c2c(nc3ccccc13)CCC2`: the IFI came out at 2.3%. As for `CN(C)CCNC(=S)Nc1cccc(C(F)(F)F)c1`, the IFI stood at 0%. On to `Cc1ccc(C(=O)NCCN2CCCCC2)cn1`, for which the IFI was found to be 0.69%. The molecule `COc1ccc(CN(CC2CCN(C(=O)c3ccccc3Cl)CC2)C(=O)c2ccc(Cl)cc2Cl)cc1` gave an IFI of 0.935%. The molecule `CCN1/C(=C/c2sc3ccc(I)cc3[n+]2CC)C=Cc2ccccc21` displayed an IFI of 15.4%. For the molecule `CCOC(=O)c1cnc2c(OC)cccc2c1Nc1cc(C)c(Cl)cc1OC`, the IFI came to 0%. Regarding `COC(=O)C1=C(C)N/C(=C\c2cc(C)n(-c3cc(C)ccc3OC)c2C)C1=O`, the IFI came to 0%. Regarding `FC(F)(F)c1cccc(-c2cncc(N3CCN(c4ccccn4)CC3)n2)c1`, the IFI was found to be 0%.

Take `COCC(=O)Oc1ccccc1-c1nc2cc(C)ccn2c1NC(C)(C)CC(C)(C)C`: the IFI turned out to be 3.74%. Molecule `CC(C)CN1CCN(c2nc(C#N)c3c(c2C(=S)NC2CCCCC2)CC(C)(C)OC3)CC1` showed an IFI of 0%. `COC(=O)C1=C(C)NC2=C(C(=O)CC(c3ccc(OC)c(OC)c3)C2)C1c1ccc(F)cc1` (stereo unspecified) registered an IFI of 7.06%. With `CCN(CC)c1ccc2cc(C(C)=NNC(N)=S)c(=O)oc2c1` the figure was 0%. `c1cncc(-c2nc3cc(-c4ccc5[nH]c(-c6cccnc6)nc5c4)ccc3[nH]2)c1`: the IFI is 5.56%. With `CCCCCCCC(O)(c1ccc(OCC)cc1)C(CN1CCCCC1)c1ccccc1` (stereo unspecified) the figure was 2.86%. Regarding `CCN1CCN(c2nc3ccccn3c(=O)c2/C=C2\SC(=S)N(C(C)C)C2=O)CC1`, the IFI amounted to 0%. In turn, `Cc1nc2c(C)c(-c3ccccc3)nn2c(O)c1C` registered an IFI of 1.54%.

`Cc1cc(/C=C2\SC(=Nc3ccccc3)N(C3CCCCC3)C2=O)c(C)n1-c1ccc(F)cc1`: the IFI amounted to 1.15%. For the molecule `Cc1cccnc1NC(c1ccc([N+](=O)[O-])cc1)c1ccc2cccnc2c1O` (stereo unspecified), the IFI worked out at 7.69%. `COC(=O)C1=C(C)NC2=C(C(=O)CC(c3ccc(Cl)cc3)C2)C1c1ccccc1` (stereo unspecified) gave an IFI of 2.3%. For the molecule `CCN(CC)CCNC(=O)c1cc(-c2ccc(Cl)cc2)cc(-n2cnnn2)c1`, the IFI worked out at 1.72%.

In turn, `O=C1NC(=S)N/C1=C/c1ccc(C(F)(F)F)cc1` displayed an IFI of 0%.

The molecule `CCOC(=O)N1CCc2c(sc(NCc3ccc(C)o3)c2C(=O)Nc2ccc(OC)cc2OC)C1` registered an IFI of 0%.

As for `Cc1c(C(=O)N2CCC3(CCN(C)C3)C2)cnn1-c1ncc2c(n1)-c1ccccc1SC2` (stereo unspecified), the IFI was 3%. `Brc1ccc2c(c1)c1ccccc1n2CC1CO1` (stereo unspecified) gave an IFI of 8.33%. For the molecule `CCCN1CCN(C(=O)CCNC(=O)Cn2cnc3ccccc3c2=O)CC1`, the IFI turned out to be 1.19%. In the case of `Clc1ccc(-c2c[n+](-c3ccccc3)c3n2CCS3)cc1` it was 0.725%; in that of `CCN(CC)CCCN(Cc1cc2cc(OC)ccc2[nH]c1=O)C(=S)Nc1ccc(C)cc1`, 5.41%. `COc1cc(NC(C)CCCN(Cc2ccc(N(C)C)cc2)C(=O)c2ccc(F)cc2)c2ncccc2c1` (stereo unspecified): the IFI is 5.61%. `CCCCCN(C(=O)CCc1ccccc1)C(CC)c1nc2ccccc2c(=O)n1-c1ccc(Cl)cc1C` (stereo unspecified) had an IFI of 2.91%.

`O=C(CCCn1c2ccccc2c(=O)c2ccccc21)NCc1ccc(F)cc1` yielded an IFI of 0%. `CC1=C(C(=O)OC(C)C)C(c2ccc([N+](=O)[O-])cc2)C2=C(CCCC2=O)N1` (stereo unspecified) showed an IFI of 1.14%. In turn, `Cc1ccc(-c2nnc(Nc3ccc(F)cc3)c3ccccc23)cc1S(=O)(=O)NCC1CCCO1` (stereo unspecified) returned an IFI of 6.06%.
